# Screen size: about 310,000 compounds; about 14,000 (4.5%) showed an effect of 50% or more. The effect is printed as a negative number. This is one part of the list.
# Target: human ether-à-go-go-related gene (hERG) potassium channel (human, UniProt Q12809)
# Assay: primary screen, population patch clamp on CHO cells stably expressing hERG
# 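Note: peak tail current of the secondary pulse compared with the same well before compound.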
# Chain of human ether-à-go-go-related gene (hERG) potassium channel (Q12809 whole entry, looked up): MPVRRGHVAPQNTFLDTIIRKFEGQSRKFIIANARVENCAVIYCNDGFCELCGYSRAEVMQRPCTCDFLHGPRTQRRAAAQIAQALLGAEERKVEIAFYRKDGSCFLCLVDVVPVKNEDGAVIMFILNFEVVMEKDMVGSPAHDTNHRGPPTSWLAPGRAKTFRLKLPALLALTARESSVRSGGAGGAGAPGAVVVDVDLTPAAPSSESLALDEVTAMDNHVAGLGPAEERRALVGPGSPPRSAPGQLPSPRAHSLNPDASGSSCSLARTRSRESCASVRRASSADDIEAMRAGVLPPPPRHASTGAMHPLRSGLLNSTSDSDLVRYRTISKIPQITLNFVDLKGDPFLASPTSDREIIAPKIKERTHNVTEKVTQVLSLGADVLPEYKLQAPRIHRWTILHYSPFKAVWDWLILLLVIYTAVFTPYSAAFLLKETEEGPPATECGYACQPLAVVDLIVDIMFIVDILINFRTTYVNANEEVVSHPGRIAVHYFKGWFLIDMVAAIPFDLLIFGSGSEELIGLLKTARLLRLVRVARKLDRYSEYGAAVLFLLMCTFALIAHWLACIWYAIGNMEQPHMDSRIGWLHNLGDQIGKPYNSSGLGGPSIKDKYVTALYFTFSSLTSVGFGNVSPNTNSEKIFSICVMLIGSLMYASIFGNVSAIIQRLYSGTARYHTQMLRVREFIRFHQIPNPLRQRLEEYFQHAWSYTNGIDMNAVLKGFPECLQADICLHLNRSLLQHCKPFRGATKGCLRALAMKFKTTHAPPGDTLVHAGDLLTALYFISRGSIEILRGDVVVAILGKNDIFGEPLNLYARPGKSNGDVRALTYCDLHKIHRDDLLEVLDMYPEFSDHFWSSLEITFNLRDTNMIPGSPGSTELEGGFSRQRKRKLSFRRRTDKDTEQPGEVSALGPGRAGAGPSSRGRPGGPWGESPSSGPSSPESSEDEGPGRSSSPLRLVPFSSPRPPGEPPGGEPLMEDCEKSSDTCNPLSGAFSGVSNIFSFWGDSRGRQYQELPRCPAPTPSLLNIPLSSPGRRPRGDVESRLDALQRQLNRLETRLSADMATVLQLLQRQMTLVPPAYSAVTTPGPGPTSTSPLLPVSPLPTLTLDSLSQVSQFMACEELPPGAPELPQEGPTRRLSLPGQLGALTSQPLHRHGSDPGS
row,SMILES,"hERG current change (%, negative = inhibition) at 10uM"
1,COc1ccc(-c2coc3cc(O)cc(O)c3c2=O)cc1,-10.5%
2,Cc1nc(N2CCN(C)CC2)c2c3c(sc2n1)CCCC3,-11.4%
3,CCn1c(CNC(=O)c2ccc(OC)cc2)nnc1SC,11.9%
4,C=CCNC(=O)c1ccc(OC)cc1OC,7.33%
5,CCOP(=O)(OCC)C(NC(=O)c1ccccc1)C(Cl)(Cl)Cl (centres unmarked),-5.83%
6,O=C(OCC(=O)N1CCCC1)c1c(Cl)cccc1Cl,14.6%
7,COc1ccc(S(=O)(=O)NNC(N)=S)cc1,8.85%
8,Cc1ccc(CSc2nnc(CC(=O)Nc3ccc(C)cc3)n2C)cc1,-9.29%
9,NC1=NC2(CCCCC2)n2c(nc3ccccc32)N1,0.282%
10,COc1cccc2c1C(=O)CC1C2CCC2CC(=O)CCC21C (centres unmarked),-33.9%
11,Cc1ccc(NC(=O)CSCC(=O)N2CCOCC2)cc1,2.51%
12,Cc1ccc(SCC(=O)N2CCC(C(N)=O)CC2)cc1,13.2%
13,CC(C)C(=O)NC(c1ccco1)c1c(O)ccc2ccccc12 (centres unmarked),14.1%
14,Cc1ccc(CCN2CC(C(=O)NCCCN(C)Cc3ccccc3)CC2=O)cc1 (centres unmarked),11.7%
15,Nc1cc(=O)[nH]c(=O)n1Cc1ccco1,-1.06%
16,CCN(CC)S(=O)(=O)c1ccc(N2CCCC2)c(NC(=O)c2ccc(N3CCCC3=O)cc2)c1,-46.9%
17,O=C(N/N=C/c1cn(-c2ccccc2)nc1-c1ccccc1)c1ccco1,3.75%
18,CCNc1nc(C(=O)O)nc(N2CCOCC2)n1,10.7%
19,Cc1ccc(Nc2nnc(SC3CCOC3=O)s2)cc1 (centres unmarked),3.04%
20,Cc1nn(Cc2ccccc2Cl)c2sc(C(=O)OC3CCCC3=O)cc12 (centres unmarked),-4.19%
21,CCN(CC)C(=O)C1CCCN(c2ncnc3c2cnn3-c2cccc(C)c2)C1 (centres unmarked),-24.3%
22,Cc1ccc(SCC(=O)OC(C)C(=O)NCc2ccccc2)cc1 (centres unmarked),-1.8%
23,Cc1csc(SCC(=O)Nc2c(C)n(C)n(-c3ccccc3)c2=O)n1,14.8%

row,SMILES,"hERG current change (%, negative = inhibition) at 10uM"
1,CCOC(=O)C1(CCOc2ccccc2)CCN(Cc2cccc(OC)c2O)CC1,-70.5%
2,CC(C)OCCCNC(=O)Cn1ccc2cc(S(=O)(=O)N3CCCCCC3)ccc21,-28.6%
3,CCOC(=O)c1ccc(S(=O)(=O)N2CCC(N3CCCCC3)CC2)cc1,-12.6%
4,O=C(Nc1nc2ccccc2[nH]1)c1ccc(F)cc1,-4.63%
5,CCc1ccc(OC(=O)c2cncc(Br)c2)cc1,17.1%
6,Cc1cccc(NC(=O)C2CCCN2C(=O)Oc2ccccc2)c1 (centres unmarked),-8.43%
7,Cc1ccc(CN2C(=O)C3CCCN3c3ncccc32)cc1 (centres unmarked),5.08%
8,Cc1ccc(N2C3=C(C(=O)CC(C)(C)C3)C(c3cn(C)nc3C)C3=C2CC(C)(C)CC3=O)cc1,-10.9%
9,CCCc1cc(C(=O)Nc2ccccc2C(=O)OC)no1,7.76%
10,COCc1ccc(C(=O)N2CCCC(Nc3ccc(C(C)C)cc3)C2)s1 (centres unmarked),-19.5%
11,O=C(Nc1ccc2nc(-c3ccccc3)oc2c1)c1ccco1,3.37%
12,CC1CC(C)CN(S(=O)(=O)N2CCCC(C(=O)NCCCN3CCOCC3)C2)C1 (centres unmarked),19.1%
13,COc1cc(CN2CCC(C(=O)NC3CCCC3)CC2)ccc1O.O=C(O)C(=O)O,7.8%
14,CN(CCCC1CCCC1)C(=O)CC1C(=O)NCCN1Cc1ccc(F)cc1 (centres unmarked),-5.31%
15,Cc1cccc(N2CCN(C(=O)C(NS(=O)(=O)c3cccs3)c3ccccc3)CC2)c1C (centres unmarked),-3.22%
16,COc1cccc(NC(=O)CCCCCN2C(=O)[C@@H]3Cc4ccccc4CN3C2=O)c1,-37.7%
17,N#Cc1ccccc1NC(=O)c1ccccc1OCC(=O)NCc1ccco1,3.8%
18,CC1Cc2ccccc2N1C(=O)Cn1nnc(-c2ccccc2NC(=O)C2CCC2)n1 (centres unmarked),-18.3%
19,CS(=O)(=O)NNC(=O)c1sccc1OCc1ncc(C(F)(F)F)cc1Cl,11.3%
20,O=C(COC(=O)CCC(=O)c1ccc(F)cc1)Nc1ccc(N2CCOCC2)cc1,1.83%
21,Cc1ccccc1NC(=S)N1CCCC(c2nc3ccccc3[nH]2)C1 (centres unmarked),11.5%
22,Cc1ccc(CN2CCN(Cc3ccc(-n4cccn4)cc3)CC2CCO)cc1 (centres unmarked),-78.1%
23,Cc1ccc(-c2nc(P(=O)(c3ccccc3)c3ccccc3)c(N3CCOCC3)o2)cc1,-38.3%

row,SMILES,"hERG current change (%, negative = inhibition) at 10uM"
1,CC(=O)N=c1sccn1CC(O)c1ccccc1 (centres unmarked),-7.22%
2,COCCNC(=O)C(c1ccc(C)cc1)N(Cc1ccccc1)C(=O)CCC(=O)Nc1ccccn1 (centres unmarked),-5.43%
3,COc1ccccc1C(=O)N1CCN=C1SC,5.95%
4,COc1ccc(CCN2CC(C(=O)NCCN3CCCC3=O)CCC2=O)cc1 (centres unmarked),-0.377%
5,CCC(C)NC(=O)c1ccccc1NC(=O)c1ccc(CSc2ccc(C)cc2)cc1 (centres unmarked),6.25%
6,NS(=O)(=O)c1ccc(CNC(=O)c2ccccc2SCC(=O)N2CCCC2)cc1,-7.36%
7,Cc1ccc(C(=O)Nc2nnc(-c3ccco3)o2)cc1,15.6%
8,CCN1CCCC1CNC(=O)c1cc(S(N)(=O)=O)ccc1OC (centres unmarked),36.6%
9,CCOC(=O)c1ccc(NC(=O)CC2COc3ccccc3O2)cc1 (centres unmarked),-2.92%
10,CC(C)CNC(=O)/C=C/C=C/CCCC/C=C/c1ccc2c(c1)OCO2,20.7%
11,COc1ccccc1NS(=O)(=O)c1cc(N/C(=N\S(=O)(=O)c2ccccc2)c2ccc(F)cc2)ccc1Cl,-4.02%
12,CCCCCn1nc(C(=O)OCc2nnc(-c3ccccc3)o2)c2ccccc2c1=O,6.13%
13,COc1ccc(-c2cc(=O)oc3c(C)c(OC(C)C(=O)NCc4ccccn4)ccc23)cc1 (centres unmarked),-9.16%
14,CN(C)C(CNC(=O)c1cnc(Cl)c(Cl)c1)c1ccccc1 (centres unmarked),8.61%
15,CCOC(=O)c1sc(NC(=O)CSc2nnc(-c3ccc(OC)cc3)n2CCOC)nc1C,-27.3%
16,COc1ccc(OC)c(C(=O)NC(CC(N)=O)c2ccc(N3CCN(c4ccccn4)CC3)c([N+](=O)[O-])c2)c1 (centres unmarked),5.61%
17,C=CCn1c(SCC(=O)Nc2ccccc2OC)nc2c([nH]c3ccccc32)c1=O,6.94%
18,COc1ccccc1CN1CCNC(=O)C1CC(=O)NCc1cn(C)nc1C (centres unmarked),11%
19,Cc1nc(CS(=O)(=O)c2ccccc2)cc(Sc2ccccc2Cl)n1,-10.3%
20,CCCCNC(=S)N(CCN(CC)CC)Cc1cc2cc3c(cc2[nH]c1=O)OCCO3,-1.01%
21,Cc1c(-c2nn(C)c(=O)c3ccccc23)oc2ccc(F)cc2c1=O,7.43%
22,COC(=O)c1ccccc1NC(=O)N1CCN(c2ccc(OC)cc2)CC1,-16.7%
23,CC(NCCOCCOc1ccccc1)c1ccccc1 (centres unmarked),-9.56%

row,SMILES,"hERG current change (%, negative = inhibition) at 10uM"
1,CC1CCN(c2ccccc2N)CC1,5.45%
2,CCNC(=S)N(CCN(CC)CC)Cc1cc2cc3c(cc2[nH]c1=O)OCCO3,6.16%
3,CN1CCc2cccc(Cl)c2CC1.Cl,-5.93%
4,COc1cccc(NC(=O)c2ccc3c(O)c(S(=O)(=O)c4ccccc4)c(=O)[nH]c3c2)c1,19.6%
5,CC(=O)c1n[nH]nc1NC(=O)c1ccccc1,12.6%
6,COc1ccc(C(=O)N2CCC(C(=O)Nc3ccc4c(c3)OCCO4)CC2)cc1,-44.2%
7,COc1ccc(CN(C)C(=O)C2CCN(C(=O)Nc3ccccc3)CC2)cc1,-16.3%
8,Cc1ccc(N2C(=O)C3Sc4[nH]c(=O)sc4C(c4ccccc4)C3C2=O)cc1 (centres unmarked),0.656%
9,O=C(Cc1ccccc1)Oc1cccc(N2C(=O)CCC2=O)c1,17.1%
10,O=C(NC1CCCc2ccccc21)c1ccc(Cl)nc1 (centres unmarked),-10.1%
11,COc1ccc(-c2nc(NC(C)=O)sc2-c2ccccc2)cc1,34.7%
12,O=S1(=O)[C@H]2C[C@@H]3C=C[C@@]2(CN1Cc1ccc(F)cc1)O3,-25.2%
13,CCOc1ccccc1NS(=O)(=O)c1c(C)[nH]c(C)c1C(=O)N1CCCCC1,2.07%
14,CCOC(=O)c1cnc(COc2ccc(OC)cc2)[nH]c1=O,6.82%
15,COc1ccc(/C=C/C(=O)NCCSCc2ccco2)cc1OC,11.7%
16,O=C(c1cc(Cl)nc2ccccc12)N1CCN(S(=O)(=O)c2ccccc2[N+](=O)[O-])CC1,-7.77%
17,Cc1cccc(C)c1NC(=O)CNC(=O)c1ccc(S(=O)(=O)NCc2ccco2)cc1,8.87%
18,COc1ccccc1CNC(=O)CN(C)S(=O)(=O)c1ccc2c(c1)c(=O)n(C)c(=O)n2C,0.355%
19,CCC(CC)c1nnc(NC(=O)c2ccc([N+](=O)[O-])cc2)s1,-1.37%
20,CCOC(=O)N1CCN(C(=O)CN2C(=O)CC(C)(C)S(=O)(=O)c3ccccc32)CC1,19.7%
